The list shows a part of the results. At the low end of the ranking the order means little.
Each sequence was assayed against SIX1-Q177R homeodomain (UniProt Q15475) (assay: universal protein binding microarray). Settings: Universal all-10-mer PBM (8x60K, AMADID 030236), 300 nM GST-tagged protein, Alexa Fluor 488 anti-GST; buffer, salt, pH and temperature not stated; high values mean tight binding; most listed sequences are background and not binding sites; double strand, one strand shown.

Row | Sequence | binding signal [E-score]
1 | CACCTAGC | 0.168
2 | CATGCTGG | 0.0148
3 | GTCGGGCA | -0.0379
4 | ATTAATTA | -0.179
5 | AATGCTTC | -0.201
6 | CCCATCAC | 0.129
7 | ACTCACAA | -0.0889
8 | GAGTTGGC | 0.00784
9 | CCGAGTTA | -0.0155
10 | CAAAAGTA | -0.147
11 | AGTGTAGA | 0.369
12 | ACGTCGAT | -0.0351
13 | AATGACCT | -0.00226
14 | ACGCTAAC | 0.136
15 | CCGGCCGC | 0.0732
16 | CCTTCCTC | -0.0894
17 | AAGGATCA | 0.0617
18 | GGTGATCA | 0.144
19 | AGGTACTC | 0.166
20 | GCTTCGAC | -0.16
21 | GCTGGTCA | -0.136
22 | CCATTCTC | -0.147
23 | CGATGATC | -0.0224
24 | AAAATCTC | -0.149
25 | CACGCCCA | 0.338

Row | Sequence | binding signal [E-score]
26 | ACGCCCCG | 0.115
27 | CGCCCCAG | -0.0406
28 | CCCTCAAA | 0.00766
29 | ACGCTCAT | -0.184
30 | CTCGAAGA | -0.0688
31 | CCTGTACC | 0.09
32 | CCCGCACA | 0.228
33 | GCCATCCA | -0.0393
34 | CCGAGGTC | 0.105
35 | CTGCCTTA | -0.0855
36 | ACACGTGT | 0.455
37 | ATATATCA | -0.112
38 | CTCGTTTA | 0.00825
39 | CGTTGCAA | -0.167
40 | CAGGAGCA | -0.113
41 | ACCCGTTC | 0.0521
42 | GGCACACC | 0.351
43 | AAATGGCG | -0.156
44 | CGTGGTAA | 0.129
45 | AACCCCAT | 0.169
46 | ACGCGGGC | 0.164
47 | ATATCATA | -0.143
48 | GGCCAGAC | 0.00856
49 | CAATAGAA | -0.16
50 | GAGCTCTA | -0.0617

Row | Sequence | binding signal [E-score]
51 | ACTTCTAT | -0.0707
52 | GCTTGTTA | -0.203
53 | AGCCTTAC | -0.178
54 | CTCATACC | -0.071
55 | AGTAGCAG | -0.041
56 | AACAAGAC | -0.0263
57 | GATCAAAA | -0.164
58 | AGCGGGGC | -0.0416
59 | GGGGACGA | 0.042
60 | CATTCGTA | -0.0121
61 | CACAGATG | -0.147
62 | GTGCGGCA | -0.12
63 | CTTACGAA | -0.0914
64 | ATTCTTAC | -0.111
65 | CGCAACCC | -0.00212
66 | ATATCAAA | -0.114
67 | CCAGGGGA | -0.00112
68 | TCTCACCA | 0.016
69 | AATAATCA | -0.165
70 | GGTAGGAC | 0.0696
71 | GATCGAAA | -0.16
72 | AACATGAC | -0.0993
73 | AGTATCGC | 0.136
74 | CTCTCCAA | 0.0708
75 | AAGCAAGA | -0.209

Row | Sequence | binding signal [E-score]
76 | AATGAGTC | -0.0332
77 | AGCTCCTG | -0.123
78 | AACCGCGA | 0.0519
79 | ACACGGAG | 0.369
80 | ATGAACGC | 0.0186
81 | AATGTCAG | -0.0957
82 | TTAGGAAA | -0.022
83 | ATGGCCAC | -0.0651
84 | AGAGATTC | -0.159
85 | AACTCATT | -0.28
86 | CCTCCGCG | -0.0512
87 | AGTACTAA | -0.0288
88 | ACGGTGCC | 0.146
89 | CATTCCTC | -0.158
90 | CCAAGGCC | -0.271
91 | GCTCATCC | -0.0262
92 | GATCTCAA | -0.0857
93 | AAACGTTT | -0.22
94 | ATTCTAAG | 0.0189
95 | AATCGTTC | -0.106
96 | AACTTCAG | -0.122
97 | AACAATAG | -0.258
98 | ACAAAACA | 0.163
99 | ATGTCAGA | -0.234
100 | AAACTCCA | -0.0652

Row | Sequence | binding signal [E-score]
101 | AACAGTTG | -0.253
102 | TAGCAAAA | -0.0243
103 | CAACTGGA | -0.15
104 | AACGTCGG | -0.0753
105 | CGACCGCG | -0.107
106 | GAACAGAC | 0.0197
107 | ATAAGCAG | 0.0346
108 | TCGTAAGA | -0.154
109 | GCGAGCGA | 0.0583
110 | CTAGTATA | -0.149
111 | AACTGAGG | -0.152
112 | CAAGACCG | 0.054
113 | ATTAGAAG | -0.232
114 | ATTGACCG | 0.0881
115 | TGCCTCCA | -0.214
116 | AATCCGAT | 0.0226
117 | GTCCGCAA | -0.178
118 | AACGGGGG | 0.141
119 | AAAAACGT | -0.135
120 | CAATCCGC | -0.124
121 | ATCCTGAG | -0.157
122 | AACGGTGA | 0.0131
123 | GCTCAGAC | -0.0953
124 | GGTAGACC | 0.00877
125 | TAAGTTCA | -0.191

Row | Sequence | binding signal [E-score]
126 | CAAGGCGC | 0.0274
127 | GGCTGGTA | 0.0328
128 | GGGTAACC | 0.196
129 | CACCCCAC | 0.355
130 | GGTCAAGA | 0.132
131 | CCCTCCGG | 0.262
132 | CACCGCCC | 0.3
133 | CTAGATGA | -0.211
134 | CCTCTTCA | 0.0346
135 | GTCACCTA | 0.0879
136 | CAGACGCC | -0.0458
137 | ATCCTGCA | 0.119
138 | AGGGATTC | 0.0314
139 | ACTAGTTC | 0.0611
140 | TCCAATAA | -0.132
141 | AGTAACTG | -0.0538
142 | CTATATGA | -0.103
143 | AGCGGTCA | -0.0596
144 | CCTTGCCC | 0.0837
145 | ACGGGTCC | 0.00801
146 | CAATCTAC | -0.124
147 | TAGCCTGA | 0.064
148 | GAAAATTA | 0.0143
149 | AAAACGAC | -0.169
150 | ACATCGTA | -0.0605

Row | Sequence | binding signal [E-score]
151 | GTGCGTTA | -0.0945
152 | AAAGTAAT | -0.0944
153 | GAACAAAA | -0.191
154 | GCGGTATA | 0.0434
155 | ACCGAGAC | 0.0346
156 | GTTCTGTA | -0.0722
157 | CAGGGCAC | 0.0382
158 | AAGGAGAG | -0.0665
159 | ATCATACC | 0.121
160 | AGGCCGTA | 0.122
161 | AATTGGAC | -0.0689
162 | CCTAAGAC | 0.0688
163 | CGGACACA | 0.226
164 | ATTCGCCC | -0.182
165 | GAGATAGA | -0.157
166 | CGGGGACG | 0.039
167 | AAAATCGA | -0.086
168 | AGCTTGGC | -0.251
169 | CAGCCGCC | -0.0735
170 | CACCTCCC | 0.256
171 | ATTGTACG | -0.195
172 | GGGAATAA | -0.0428
173 | AAACAGTG | 0.0515
174 | AGACTCAG | -0.264
175 | AACAGATG | -0.28

Row | Sequence | binding signal [E-score]
176 | CGGGTGAA | 0.11
177 | ATCAGTGA | -0.0593
178 | ATAATTAT | -0.174
179 | CGATAGCA | -0.0623
180 | GAGCGAAC | -0.0926
181 | CCAAGCGG | 0.162
182 | ATAATTCC | -0.206
183 | CAGTAGGG | 0.12
184 | GCATTCAC | -0.0956
185 | CTTGCTCA | -0.149
186 | GAGAGCTA | -0.122
187 | AATTATTA | -0.141
188 | GTACGTGA | -0.087
189 | AGATAATG | 0.00311
190 | AAGCATGA | -0.0327
191 | CAAGTTCC | -0.213
192 | TATGGCGA | -0.241
193 | CAGCCACC | 0.0173
194 | ATATGGGC | -0.138
195 | AGTAGCGG | -0.0364
196 | ACGAAGAA | -0.0589
197 | TAAGAAAA | -0.076
198 | CCCAAAGA | -0.139
199 | GAACCCGC | 0.135
200 | CAATTCCA | -0.169

Row | Sequence | binding signal [E-score]
201 | GATCGAGA | -0.00237
202 | ACGCTAGT | 0.113
203 | ACACCGTA | 0.47
204 | GACACCGC | 0.487
205 | GGAAGCTA | -0.284
206 | GCACTTAA | -0.144
207 | ACCCCCGT | 0.273
208 | AACTCACC | -0.0531
209 | ATTGGTGA | -0.18
210 | ATAATCCA | 0.0281
211 | GGCGGAGA | 0.114
212 | AGAATATA | -0.114
213 | GCCAGGAA | -0.0578
214 | AACTTGCA | -0.128
215 | AAAGACAT | -0.387
216 | GCTGGGAC | -0.0817
217 | CTTTGGGA | -0.0341
218 | AAACGAAG | -0.128
219 | CATGGTTC | -0.0671

Source: PMC10668032
